Results: the supplement of paper PMC8728848
The other results are listed elsewhere or left out.

Experiments:
Assay in all cases: glycan array binding signal (z-score within array); higher = stronger binding
Conditions in all cases: glycan notation: IUPAC condensed, linker removed; mutation: E227G
[1] = target: Man(a1-2)Man(a1-3)[Man(a1-2)Man(a1-6)]Man
In short: (§1)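 Columns mapping to the same glycan were averaged after glycan names were converted to IUPAC-condensed notation. The data come from 3228 arrays in the Consortium for Functional Glycomics database, limited to those with an available protein sequence. Binding is reported as a within-array Z-score averaged across arrays of one protein sequence and across linkers.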

[2] = target: Man(a1-2)Man(a1-3)[Man(a1-2)Man(a1-6)]Man(a1-6)[Man(a1-2)Man(a1-2)Man(a1-3)]Man
In short: as §1

[3] = target: Man(a1-2)Man(a1-3)[Man(a1-2)Man(a1-6)]Man(a1-6)[Man(a1-2)Man(a1-2)Man(a1-3)]Man(b1-4)GlcNAc(b1-4)GlcNAc
In short: as §1

[4] = target: Man(a1-2)Man(a1-3)[Man(a1-6)]Man(a1-6)[Man(a1-2)Man(a1-3)]Man(b1-4)GlcNAc(b1-4)GlcNAc
In short: as §1

[5] = target: Man(a1-2)Man(a1-6)[Man(a1-3)]Man(a1-6)[Man(a1-2)Man(a1-2)Man(a1-3)]Man
In short: as §1

[6] = target: Man(a1-2)Man(a1-6)[Man(a1-3)]Man(a1-6)[Man(a1-2)Man(a1-2)Man(a1-3)]Man(b1-4)GlcNAc(b1-4)GlcNAc
In short: as §1

Man(a1-3)[Man(a1-6)]Man = target: Man(a1-3)[Man(a1-6)]Man
In short: as §1

[7] = target: Man(a1-3)[Man(a1-6)]Man(a1-6)[Man(a1-2)Man(a1-3)]Man(b1-4)GlcNAc(b1-4)GlcNAc
In short: as §1

[8] = target: Man(a1-3)[Man(a1-6)]Man(a1-6)[Man(a1-3)]Man
In short: as §1

[9] = target: Man(a1-3)[Man(a1-6)]Man(a1-6)[Man(a1-3)]Man(b1-4)GlcNAc(b1-4)GlcNAc
In short: as §1

[10] = target: Man(a1-3)[Man(a1-6)]Man(b1-4)GlcNAc(b1-4)GlcNAc
In short: as §1

[11] = target: Man(a1-3)[Man(a1-6)]Man(b1-4)GlcNAc(b1-4)[Fuc(a1-6)]GlcNAc
In short: as §1

Man(a1-6)Man = target: Man(a1-6)Man
In short: as §1

Man(b1-4)GlcNAc = target: Man(b1-4)GlcNAc
In short: as §1

MurNAc(b1-4)GlcNAc = target: MurNAc(b1-4)GlcNAc
In short: as §1

Neu5Ac(a2-3)Gal = target: Neu5Ac(a2-3)Gal
In short: as §1

[12] = target: Neu5Ac(a2-3)Gal(b1-3)GalNAc
In short: as §1

[13] = target: Neu5Ac(a2-3)Gal(b1-3)GalNAc(b1-3)Gal(a1-4)Gal(b1-4)Glc
In short: as §1

[14] = target: Neu5Ac(a2-3)Gal(b1-3)GalNAc(b1-4)Gal(b1-4)Glc
In short: as §1

[15] = target: Neu5Ac(a2-3)Gal(b1-3)GalNAc(b1-4)[Neu5Ac(a2-3)]Gal(b1-4)Glc
In short: as §1

[16] = target: Neu5Ac(a2-3)Gal(b1-3)GalNAc(b1-4)[Neu5Ac(a2-8)Neu5Ac(a2-3)]Gal(b1-4)Glc
In short: as §1

[17] = target: Neu5Ac(a2-3)Gal(b1-3)GalNAc6S
In short: as §1

[18] = target: Neu5Ac(a2-3)Gal(b1-3)GlcNAc
In short: as §1

[19] = target: Neu5Ac(a2-3)Gal(b1-3)GlcNAc(b1-2)Man
In short: as §1

[20] = target: Neu5Ac(a2-3)Gal(b1-3)GlcNAc(b1-2)Man(a1-3)[GlcNAc(b1-4)][Neu5Ac(a2-3)Gal(b1-3)GlcNAc(b1-2)Man(a1-6)]Man(b1-4)GlcNAc(b1-4)GlcNAc
In short: as §1

[21] = target: Neu5Ac(a2-3)Gal(b1-3)GlcNAc(b1-2)Man(a1-3)[Neu5Ac(a2-3)Gal(b1-3)GlcNAc(b1-2)Man(a1-6)]Man(b1-4)GlcNAc(b1-4)GlcNAc
In short: as §1

[22] = target: Neu5Ac(a2-3)Gal(b1-3)GlcNAc(b1-2)[Neu5Ac(a2-3)Gal(b1-3)GlcNAc(b1-4)]Man(a1-6)[Neu5Ac(a2-3)Gal(b1-3)GlcNAc(b1-2)Man(a1-3)]Man(b1-4)GlcNAc(b1-4)GlcNAc
In short: as §1

[23] = target: Neu5Ac(a2-3)Gal(b1-3)GlcNAc(b1-3)Gal(b1-3)GlcNAc
In short: as §1

[24] = target: Neu5Ac(a2-3)Gal(b1-3)GlcNAc(b1-3)Gal(b1-4)GlcNAc
In short: as §1

[25] = target: Neu5Ac(a2-3)Gal(b1-3)GlcNAc(b1-3)GalNAc
In short: as §1

B1: Epa1-NP-mutant-E227G (Candida glabrata), Q6VBJ0 (protein)
chain: MILNPALFLNKCVCIYTTLILLLLTNGGYATSSNDISLASKDPTTFPLGCSPDITTPKKGLSMELYSYDFRKKGSYPCWDAAYLDPNYPRTGYKSHRLLAKVDGVTGNINFYYHATKGCTPQLGHLPASYNYPKPLTMTNFTMLLYGYFRPKVTGFHTFTISADDLLFVNFGAGNAFDCCRRDSSADHFGNYQAYAIWGSKTAKDELTVHLDAGVYYPIRLFYNNRGYDGALSFTFKTESNENTVSDFSEYFFSLDDTEEGCPGLISYDSSCASVKTSKIIGIDYHTETPNENLVPITKTIYHLGIPCTGTTTTPLCGSGFYDPLANKCVTINTSSTSSVTKTTSHTTSKEVSFHSSISSQKTLIPKSIPSPYGPIKSQSIPTEMETSSEISSSEYAFSDVISTPSHSPYTKKHSSLNSSSYTSTVIHSLTSYSISQGIFSTSLSEQNITSKSSTDKFSTATSMSNNITQSSIIISQFSTNNENYTTTSMHTSSDKISTETLNNSISTTTSILFSNSSTILKNNTTIISSDKDTHYHPVNPTIVCSTNKTEIICASITQPSISNSNNHWSSSVLKFNSTTVRSTLPSSAGSNETSINVPFSSSTESNTSTSSTSTSNSKMVRSTLPSSAGSNETSISVPFSSSTESNTSTSSTSTSNSKMVRSTLPSSAGSNETSINVPFSSSTESNTSTSSTSTSNSKTVRSTPFSSAGIIMTSLSQRNNKSASSYASSNSKCYNTADSCRKVHSTPSYLLTSSYTSEGVDYDCSLVSTKLKINDTNCVNNKHTTKSCLKTSVTTTIPTLEIKTARKSSSNTIGLHSYPTSSPNKSISSAPIIGYISSFKTIKTASPSYQTSDLTTITTITSLNNPGSTAVENTHESNDKSRKTSSNDISSKHSVIKETKDAVESSNKSHQTNTLKCSSIIIASSSHNSYESLGGTTLTLTLSKVYSPQNNDTLPFLEISEVNPSRTVLPESSKMMQYLTSTEERNKTARNTIATNIVSISTFHFEGEGNAIRMGYTQLLLMLIGIIVMNIGT
- glycan array binding signal (z-score) [1]: -0.26
- glycan array binding signal (z-score) [2]: -0.144
- glycan array binding signal (z-score) [3]: -0.127
- glycan array binding signal (z-score) [4]: -0.291
- glycan array binding signal (z-score) [5]: 0.017
- glycan array binding signal (z-score) [6]: -0.173
- glycan array binding signal (z-score) (Man(a1-3)[Man(a1-6)]Man): -0.126
- glycan array binding signal (z-score) [7]: -0.16
- glycan array binding signal (z-score) [8]: -0.162
- glycan array binding signal (z-score) [9]: -0.307
- glycan array binding signal (z-score) [10]: -0.182
- glycan array binding signal (z-score) [11]: -0.132
- glycan array binding signal (z-score) (Man(a1-6)Man): -0.227
- glycan array binding signal (z-score) (Man(b1-4)GlcNAc): -0.19
- glycan array binding signal (z-score) (MurNAc(b1-4)GlcNAc): -0.166
- glycan array binding signal (z-score) (Neu5Ac(a2-3)Gal): -0.003
- glycan array binding signal (z-score) [12]: -0.211
- glycan array binding signal (z-score) [13]: -0.212
- glycan array binding signal (z-score) [14]: -0.209
- glycan array binding signal (z-score) [15]: -0.222
- glycan array binding signal (z-score) [16]: -0.211
- glycan array binding signal (z-score) [17]: -0.221
- glycan array binding signal (z-score) [18]: -0.16
- glycan array binding signal (z-score) [19]: -0.13
- glycan array binding signal (z-score) [20]: -0.114
- glycan array binding signal (z-score) [21]: 0.018
- glycan array binding signal (z-score) [22]: 0.068
- glycan array binding signal (z-score) [23]: -0.229
- glycan array binding signal (z-score) [24]: -0.256
- glycan array binding signal (z-score) [25]: -0.191
